For series [1], the system named is GL261. In words: cell viability relative to siNT1 (ATP content); H4 human neuroglioma and GL261 mouse glioma; higher = less toxic. The note with it: siRNA concentration 25 nM; 96 h; mouse.
Series [2] deals with H4. The description is as above. As to conditions: siRNA concentration 10 nM; 96 h; human.

Shown are siRNA guide strands that differ only in the seed, positions 2 to 7.
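Also: cells reverse transfected with siRNA duplexes via lipid reagent, ATP read by luminescence, triplicate wells, values scaled to mean viability with non-targeting control siNT1.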

For orientation: cell viability means a per cent measure of how many cells are alive, often set against a control. Turning to UGUUAGAACAUGUAAACCA, the cell viability in series [1] came out at 45.9%; in series [2] it was 84%.
Consider UGUUAGCACAUGUAAACCA, for which the cell viability in series [1] came out at 6.99%; in series [2] it was 38.4%.
In the case of UGUUAGGACAUGUAAACCA, the cell viability is 38.2% in series [1] and 81.8% in series [2].
Take UGUUAGUACAUGUAAACCA: the cell viability in series [1] came to 18.2%; in series [2], 68.2%.
As for UGUUAUAACAUGUAAACCA, the cell viability in series [1] turned out to be 65.1%; in series [2], 94.6%.
UGUUAUCACAUGUAAACCA: the cell viability in series [1] stood at 27.6%; in series [2], 38%.
The matching figures for UGUUAUGACAUGUAAACCA: 61.5% and 80.3%.
The matching figures for UGUUAUUACAUGUAAACCA: 65.9% and 84.3%.
UGUUCAAACAUGUAAACCA: the cell viability was determined as 66.6% in series [1] and 76% in series [2].
For UGUUCACACAUGUAAACCA the same measures were 45.1% and 34.5%.
Take UGUUCAGACAUGUAAACCA: the cell viability came to 58.2% in series [1] and 56.5% in series [2].
For the sequence UGUUCAUACAUGUAAACCA, the cell viability stood at 49% in series [1] and 61.9% in series [2].
As for UGUUCCAACAUGUAAACCA, the cell viability turned out to be 40.9% in series [1] and 19.7% in series [2].
With UGUUCCCACAUGUAAACCA, the cell viability in series [1] amounted to 20.3%; in series [2], 47.8%.
As for UGUUCCGACAUGUAAACCA, the results for the cell viability in series [1] and in series [2] were 38% and 8.37%, respectively.
For UGUUCCUACAUGUAAACCA the same measures were 24.7% and 16.8%.
As for UGUUCGAACAUGUAAACCA, the cell viability is 69.6% in series [1] and 74.1% in series [2].
Consider UGUUCGCACAUGUAAACCA, for which the figures for the cell viability in series [1] and in series [2] were 38.5% and 67.7%, respectively.
On to UGUUCGGACAUGUAAACCA, for which the cell viability was found to be 54% in series [1] and 61.9% in series [2].
Regarding UGUUCGUACAUGUAAACCA, the cell viability was 48.3% in series [1] and 70.6% in series [2].
Turning to UGUUCUAACAUGUAAACCA, the cell viability was found to be 64.7% in series [1] and 98.3% in series [2].
As to UGUUCUCACAUGUAAACCA, the cell viability in series [1] is 17.2%; in series [2], 63.9%.
UGUUCUGACAUGUAAACCA: the cell viability in series [1] came to 29.6%; in series [2], 68%.
The matching figures for UGUUCUUACAUGUAAACCA: 20.3% and 75.6%.
For the sequence UGUUGAAACAUGUAAACCA, the cell viability in series [1] came to 72.8%; in series [2], 97%.
In the case of UGUUGACACAUGUAAACCA, the values for the cell viability in series [1] and in series [2] were 60.7% and 39.5%, respectively.
In the case of UGUUGAGACAUGUAAACCA, the cell viability worked out at 61.8% in series [1] and 59.2% in series [2].
Turning to UGUUGAUACAUGUAAACCA, the results for the cell viability in series [1] and in series [2] were 28.2% and 42.9%, respectively.
Regarding UGUUGCAACAUGUAAACCA, the cell viability turned out to be 51.3% in series [1] and 80.5% in series [2].
In the case of UGUUGCCACAUGUAAACCA, the cell viability in series [1] came to 7.58%; in series [2], 3.14%.
As to UGUUGCGACAUGUAAACCA, the cell viability in series [1] is 41.7%; in series [2], 95%.
In the case of UGUUGCUACAUGUAAACCA, the cell viability came out at 26.3% in series [1] and 6.41% in series [2].
In the case of UGUUGGAACAUGUAAACCA, the figures for the cell viability in series [1] and in series [2] were 45.9% and 30.4%, respectively.
Regarding UGUUGGCACAUGUAAACCA, the cell viability in series [1] was found to be 27.5%; in series [2] it was 17.5%.
For UGUUGGGACAUGUAAACCA, the cell viability in series [1] was determined as 34.5%; in series [2], 21.5%.
Take UGUUGGUACAUGUAAACCA: the cell viability worked out at 28.9% in series [1] and 29.2% in series [2].

Source of the values: the supplement of paper PMC8948288.
